The shares of active, inactive and inconclusive entries below differ from those in the screen. Potencies beside an inconclusive call are fits to weak or partial responses and may not hold up. The source made the active and inactive calls. Calls come from the whole dose curve; as a rule, active = well fitted curve in the direction sought with a large enough effect; inconclusive = small, poorly fitted or top-dose-only effect, or another doubt; inactive = no such curve, though single readings can be large; an effect the other way counts as inactive or inconclusive.
Assay: qHTS Assay for Identifying Gametocytocidal Compounds (AID 743244)
Details: P. falciparum 3D7 stage III-V gametocytes, alamarBlue, 72 h; max response: hits give low values
Procedure, shortened: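 Using 20,000 stage III–V 3D7 gametocytes per well, compounds were incubated 72 h under 37 °C/5% CO2. Viability was then assessed by 24 h alamarBlue reduction, measured fluorometrically at 525/598 nm.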
Potency is the fitted concentration of half-maximal effect; tags give direction and shape of the fitted curve.

Compound	Potency
C[C@@H](Oc1cc(-c2cnn(C3CCNCC3)c2)cnc1N)c1c(Cl)ccc(F)c1Cl	active: 7.43 µM
Cc1ccc(C(=O)N(CCCN)[C@@H](c2nc3cc(Cl)ccc3c(=O)n2Cc2ccccc2)C(C)C)cc1	active: 18.7 µM
COc1cc2c(Oc3ccc4[nH]c(C)cc4c3F)ncnc2cc1OCCCN1CCCC1	active: 18.7 µM
CCc1cc(Nc2nccc(-c3c(-c4ccc(OC)c(C(=O)Nc5c(F)cccc5F)c4)nc4ccccn34)n2)c(OC)cc1N1CCC(N2CCN(S(C)(=O)=O)CC2)CC1	active: 3.72 µM
Cc1nn(Cc2ccccc2Cl)c(C)c1CN(C)CC(O)COc1ccc(Cl)cc1 (stereo unspecified)	inconclusive: 29.6 µM [inhibitor, single point]

Assay: qHTS Screen of the MIPE 4.0 Collection Against Ewings Sarcoma (EW8) (AID 1259255); note: nearly all actives have a fitted effect of over 35% in size
Details: EW8 Ewing sarcoma viability, CellTiter-Glo, 48 h; series mostly up to 45.8 µM
Procedure, shortened: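 Measured: ATP luminescence (CellTiter-Glo) 10 min after reagent addition, following 48 h drug treatment. Relative luciferase units converted to percent activity, with no-cell wells as full and DMSO wells as zero inhibition.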

Compound	Potency
CC(N[C@H]1CCCC[C@H]1NC(=O)c1ccc(Cl)cc1)c1cccc2ccccc12 (stereo partly specified)	inactive
Cc1ccc(C(N)=O)cc1Nc1nccc(-c2cn(C(C)C)c3cnccc23)n1	active: 18.7 µM
CC(C)C[C@H](NC(=O)[C@@H](O)[C@H](N)Cc1ccccc1)C(=O)O	inconclusive: 33.2 µM [inhibitor, single point]
CC[C@@H]1C(=O)N(C)c2cnc(Nc3ccc(C(=O)NC4CCN(C)CC4)cc3OC)nc2N1C1CCCC1	active: 0.0372 µM
C[C@@H](Oc1cc(-c2cnn(C3CCNCC3)c2)cnc1N)c1c(Cl)ccc(F)c1Cl	active: 10.5 µM
CC(=O)N1CCN(c2ccc(OCc3nn(C)c(C)c3-c3cccc4c(CCCOc5cccc6ccccc56)c(C(=O)O)n(Cc5cccnc5)c34)cc2)CC1	active: 3.72 µM

Source: PubChem BioAssay (NCATS)
